The whole screen tested about 310,000 compounds, of which about 2,200 (0.71%) showed an effect of 50% or more. The effect is printed as a negative number. The list shows a part of the results.
Each molecule was assayed against human ether-à-go-go-related gene (hERG) potassium channel (human, UniProt Q12809) (assay: primary screen, population patch clamp on CHO cells stably expressing hERG).
Sequence of human ether-à-go-go-related gene (hERG) potassium channel (Q12809 whole entry, looked up): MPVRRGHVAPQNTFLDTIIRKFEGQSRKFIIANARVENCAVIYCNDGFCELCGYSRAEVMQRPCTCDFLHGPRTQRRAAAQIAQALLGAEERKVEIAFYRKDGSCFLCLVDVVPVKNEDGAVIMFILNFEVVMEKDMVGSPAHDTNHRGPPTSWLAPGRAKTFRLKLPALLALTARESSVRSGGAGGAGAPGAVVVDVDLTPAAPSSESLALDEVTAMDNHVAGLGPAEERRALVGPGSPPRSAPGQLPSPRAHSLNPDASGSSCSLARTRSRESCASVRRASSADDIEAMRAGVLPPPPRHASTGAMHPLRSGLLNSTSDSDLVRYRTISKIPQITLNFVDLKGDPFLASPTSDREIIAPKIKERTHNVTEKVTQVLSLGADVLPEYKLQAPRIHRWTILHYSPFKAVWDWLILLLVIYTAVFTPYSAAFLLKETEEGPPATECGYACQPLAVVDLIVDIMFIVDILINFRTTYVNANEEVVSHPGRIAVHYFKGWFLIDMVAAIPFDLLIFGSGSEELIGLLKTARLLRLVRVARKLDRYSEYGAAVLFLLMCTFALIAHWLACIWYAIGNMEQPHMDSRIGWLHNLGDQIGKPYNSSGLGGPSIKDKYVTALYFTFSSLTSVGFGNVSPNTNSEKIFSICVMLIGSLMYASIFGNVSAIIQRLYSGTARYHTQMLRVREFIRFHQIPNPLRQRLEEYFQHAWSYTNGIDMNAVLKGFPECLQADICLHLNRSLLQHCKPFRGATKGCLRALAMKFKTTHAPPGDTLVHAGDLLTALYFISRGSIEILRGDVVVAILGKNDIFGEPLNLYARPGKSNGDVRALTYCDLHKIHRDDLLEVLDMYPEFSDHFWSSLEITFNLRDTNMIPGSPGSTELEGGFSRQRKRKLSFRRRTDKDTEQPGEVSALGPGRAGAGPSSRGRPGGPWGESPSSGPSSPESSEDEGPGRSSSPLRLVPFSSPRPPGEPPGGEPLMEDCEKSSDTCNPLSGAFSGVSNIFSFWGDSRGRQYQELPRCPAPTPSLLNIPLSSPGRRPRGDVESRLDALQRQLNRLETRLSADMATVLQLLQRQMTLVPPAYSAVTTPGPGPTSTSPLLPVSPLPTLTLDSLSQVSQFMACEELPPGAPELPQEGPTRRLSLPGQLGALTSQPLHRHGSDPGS

Structure (SMILES) | hERG current change (%, negative = inhibition) at 1uM [%]
COc1cccc(Cn2cccc(NC(=O)NC3CCCCC3)c2=O)c1 | 11.2
COc1ccc(-c2sc(NC(=O)c3ccc(C)cc3)nc2-c2ccc([N+](=O)[O-])cc2)cc1 | 6.45
CC(=O)Nc1ccccc1C(=O)OCC(=O)Nc1ncccn1 | 12.1
c1coc(C2Nc3ccccc3-c3nc4ccccc4n32)c1 (centres unmarked) | 7.75
CCOc1ccc(NC(=O)c2ccccn2)cc1 | 5.69
CN(C(=O)Oc1ccc(Cl)c2cccnc12)c1ccccc1 | 7.25
Cc1cccc(C(=O)NCC(=O)N2CCN(S(=O)(=O)/C=C/c3ccccc3)CC2)c1 | 0.557
Cc1cc(C)cc(N(CC(=O)NCc2ccco2)C(=O)CCC(=O)Nc2nccs2)c1 | 8.75
COc1cc(C(=O)NC2CCN(CC(=O)NC3CCCCC3)CC2)cc(OC)c1OC | 14.5
O=C(NCCc1ccc(Cl)cc1)c1cccnc1 | 9.38
CCOC(=O)/C=C(C)\C=C\c1c[nH]c2ccccc12 | 12.5
CSc1ccc(CN(C)CC(=O)NC(=O)NC(C)(C)C)cc1 | 10.6
CS(=O)(=O)Nc1ccccc1C(=O)N1CCN(c2ccccc2)CC1 | 4.88
Cn1cnnc1SCc1ccc(F)c2ccccc12 | -0.911
CC(=O)c1sc(-c2ccccc2)cc1NS(=O)(=O)c1ccccc1 | 12.9
Cn1c(O)c(C(=Nc2ccccc2)SCc2ccc(Cl)cc2)c(=O)n(C)c1=O | 16.6
COc1ccc(CC(=O)Nc2nc3ccccc3s2)cc1S(=O)(=O)N1CCOCC1 | 1.25
Cc1cc(-n2cnnn2)cc(C)c1S(=O)(=O)N(C)c1ccccc1 | 13.8
CCOn1c(=O)c(-c2cccs2)[n+]([O-])c2ccccc21 | -10.2
O=C(CSc1ncccc1C(=O)O)c1cccc(C(F)(F)F)c1 | 0.384
CCOC(=O)c1c(C)[nH]c(C(=O)OC(C)C(=O)NCc2ccccc2)c1C (centres unmarked) | 15.8
O=C(OCCN1C(=O)c2ccccc2C1=O)c1cc(=O)[nH]c2ccccc12 | 16.9
CC(O)/C=C/c1cccc[n+]1C.[I-] (centres unmarked) | 2.85

Structure (SMILES) | hERG current change (%, negative = inhibition) at 1uM [%]
O=[N+]([O-])c1ccc(Cl)cc1NCC1CCCO1 (centres unmarked) | 6.39
O=C(CCn1cnnn1)Nc1ccc(Cl)cc1Cl | 9.2
CC1CC(C)CN(c2nc(NCc3ccco3)nc(N)c2[N+](=O)[O-])C1 (centres unmarked) | -14.4
CCCCN1C(=O)/C(=C/C=C2\N(C)c3ccccc3C2(C)C)SC1=S | 18.3
COc1cc(C2NC(=O)NC(O)(C(F)(F)F)C2C(=O)c2ccc(Cl)cc2)ccc1O (centres unmarked) | 7.72
COc1ccc(Cl)cc1NC(=O)CN(C)C(=O)Cc1ccsc1 | -3.38
N#CCC(=O)N/N=C/c1cccc(Oc2ccccc2)c1 | 11.6
COc1ccc(C(CNC(=O)C(=O)NC2CCCCC2)N2CCN(C)CC2)cc1 (centres unmarked) | -2.33
O=[N+]([O-])c1ccc(O)c(NC(=S)Nc2ccccc2)c1 | 15
COc1cc(/C=C2/C(=N)N3C(=NC2=O)SN=C3S(C)(=O)=O)ccc1OS(=O)(=O)c1ccccc1 | 14.2
O=C(O)c1ccc(Sc2nnnn2-c2ccccc2)c([N+](=O)[O-])c1 | 4.93
COc1ccc(NC(=O)C2CCCC2)cc1 | 14.6
CC(C)(C)OC(=O)N1CCC(c2c(C(=O)NC3CC3)cnn2-c2ccc(Cl)cc2)CC1 | 6.61
CC(NC(=O)c1ccccc1F)c1nnc(SCC(=O)NC2=NCCS2)n1C (centres unmarked) | 14.2
CCCCCN(C(=O)CCC(=O)OCc1cc(C)ccc1C)c1c(N)n(CCCC)c(=O)[nH]c1=O | -2.23
O=C(C(c1ccccc1)c1ccccc1)N1CCCc2ccccc21 | 6.77
Cc1cccc2c1=NC(=O)/C(=C/c1c(O)[nH]c(=O)[nH]c1=O)C=2 | 3.92
Cc1cccc(C)c1NC(=O)CN(C)CC(=O)Nc1sc2c(c1C(N)=O)CCC2 | 4.74
CCN(C(=O)COc1ncnc2sccc12)c1ccccc1 | 29.4
CC1CN(C(=O)CCc2cc(C(C)(C)C)c(O)c(C(C)(C)C)c2)CC(C)O1 (centres unmarked) | -3.11
CCOC(=O)Cn1c(=O)oc2cc(S(=O)(=O)NCCCc3ccccc3)ccc21 | 7.34
CCOc1ncccc1C(=O)OCc1ccccc1 | 20.6
Cc1cc(C(=O)N2CCN(Cc3ccccc3)CC2)ccc1[N+](=O)[O-] | -1.23

Structure (SMILES) | hERG current change (%, negative = inhibition) at 1uM [%]
CC1CCN(c2ccc(C(=O)N3CCOCC3)cc2[N+](=O)[O-])CC1 | 7.52
Cc1cccc(NC(=O)CN2CCN(C(=O)C3CCN(C(=O)/C=C/c4ccccc4)CC3)CC2)c1C | -56.6
CC(C)Nc1nc(Cl)nc(N(C#N)CN2C(=O)c3ccccc3S2(=O)=O)n1 | 6.53
CC(=O)Nc1ccc(S(=O)(=O)N2CCN(S(=O)(=O)c3ccccc3)CC2)cc1 | 10.1
Cc1ccnc(NC(=O)C2CCCN(c3ncnc4c3nc3n4CCCCC3)C2)c1 (centres unmarked) | -2.98
CNc1ccc(SC#N)cc1.Cl | 16.3
COC(=O)CSc1nccc(-c2cccs2)n1 | 5.24
CCOC(=O)C(NC(=O)Nc1ccc(F)cc1F)(Oc1ccccc1)C(F)(F)F (centres unmarked) | 5.44
CSc1nnc(N2C(=O)C(O)=C(C(=O)c3ccco3)C2c2ccccc2)s1 (centres unmarked) | 11.2
CC(Cc1ccccc1)C(=O)NCc1ccncc1 (centres unmarked) | 18.1
C/C(N)=C(/C#N)C(=O)COC(=O)c1cc(C)n(-c2ccc(F)cc2)c1C | 17.8
CCOc1ccc2nc(SCC(=O)NC3CCS(=O)(=O)C3)[nH]c2c1 (centres unmarked) | 8.46
CSc1ccc(/C=N/NC(=O)CNc2cccc3ccccc23)cc1 | -13.3
C/C(CC(=O)Nc1cc(C)ccn1)=N\NC(=O)c1cccc(F)c1 | 12.3
CN1C(=O)C(=O)/C(=C(/O)c2ccccc2)C1c1ccc(Br)cc1 (centres unmarked) | 9.7
CC1(C)CC(=O)C=C(c2cccs2)C1 | 9.28
CS(=O)(=O)N1CCN(c2ccc(C(=O)N3CCOCC3)cc2[N+](=O)[O-])CC1 | 6.05
CCCCOc1cccc(C2C(C(=O)c3cccs3)=C(O)C(=O)N2Cc2cccnc2)c1 (centres unmarked) | 20.5
O=C(Nc1nncs1)C1CC(=O)N(C2CCCC2)C1 (centres unmarked) | -8.69
O=C(O)c1cc2[nH]c3c(c2cc1Cl)CCCC3 | -4.58
COC(=O)C(C(=O)Nc1nc2ccccc2s1)C1CCCC1 (centres unmarked) | 7.19
COc1cc(OC)c2c3c(c(C4CCCCC4)nc2c1)CCC3 | 13.1
Cc1cccc(CCN2C(Nc3ccccc3)=NC[C@@H]2C)c1 | 4.48

Structure (SMILES) | hERG current change (%, negative = inhibition) at 1uM [%]
CC(C)c1ccc(C2C(C(=O)c3ccco3)=C(O)C(=O)N2CC2CCCO2)cc1 (centres unmarked) | 13.4
CS(=O)(=O)Nc1ccc(C(=O)Nc2ccc(S(=O)(=O)N3CCCCC3)cc2)cc1 | 10.9
CCSCCOC(=O)C1=C(C)N(C)C(=O)NC1c1cc(OC)ccc1OC (centres unmarked) | 1.72
CCCCCCNC(=O)CCCCCNS(=O)(=O)c1ccc(OC)cc1 | 6.08
Cn1ncnc2c(=O)n(C)c(=O)nc1-2 | 1.86
CCCCCCCCCCOC(=O)Cn1c(COc2ccccc2OC)[n+](C)c2ccccc21.[Cl-] | -33.2
Cc1cc(C)cc(OCCCCCNCCO)c1 | 6.66
Cc1nnc(NC(=O)C2CCN(C(=O)c3ccco3)CC2)s1 | 12.4
COCCN1C(=O)C(=O)/C(=C(/O)c2ccc(S(=O)(=O)N3CCCCC3)cc2)C1c1ccc(OC)cc1 (centres unmarked) | 11.9
CCC(C(=O)NN1C(=O)c2ccccc2C1=O)c1ccccc1 (centres unmarked) | 13.8
NC(=O)CNC(=O)[C@@H]1CC2(CC(c3cccc(Br)c3)=NO2)CN1C(=O)c1ccc(Br)cc1 (some centres unmarked) | 10.5
COc1ccc(S(=O)(=O)N(C)C)cc1NC(=O)c1ccc2c(c1)NC(=O)C(C)S2 (centres unmarked) | 13.4
Cc1ccccc1NC(=O)CSC(N)=O | 24
CC(C)CC(O)(CC(C)C)C(=O)NNc1ccccc1 | 8.96
Cc1cc(C(F)(F)F)nc(CCNCc2c(C(=O)N3CCCC3)nc3ccccn23)n1 | -7.53
Cc1ccc(NCc2nnc(SC(C)C(=O)N/N=C/c3ccc(C)o3)n2-c2ccccc2)cc1 (centres unmarked) | 6.75
O=C(CSc1nnc(CNC(=O)c2cccs2)o1)Nc1ccc2c(c1)OCO2 | 14
COc1ccc(CNC(=O)c2cccc3c2C(=O)N(Cc2cccnc2)C3)cc1 | -1.42
CC/C(=N\NC(=O)c1c(-c2ccccc2)noc1C)c1ccc(C)o1 | 4.03
CCN=C1SC(CC(=O)NCCc2ccc(OC)cc2)C(=O)N1CC (centres unmarked) | 19.8
